Our source for the relative growth values is the supplement of paper PMC9446081.

Among all 39,000 compounds or so, about 220 (0.56%) showed activity. Some of the results follow.
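Note: static incubation at 37 °C against the wild-type strain, values averaged over two biological replicates.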

The assay concerns Escherichia coli K-12 BW25113. Kind of assay: relative growth (OD600 normalised to plate interquartile mean) (fraction); higher = less growth inhibition, active = 0.2 or less. To be noted: 50 µM; LB; incubation time: overnight (16-24 h).
Regarding `Cc1noc(C)c1NC(=O)Nc1ccc2c(c1)C(=O)N([C@@H](C)CO)C[C@H](C)[C@@H](CN(C)Cc1ccc(C(=O)Nc3ccccc3N)cc1)O2`, the relative growth is inactive: 1.01.

`CCNC(=O)C[C@H]1CC[C@H]2[C@H](COc3ccc(NS(=O)(=O)c4ccccc4C)cc3C(=O)N2C)O1`: the relative growth is inactive: 1.

In the case of `Cc1noc(C)c1S(=O)(=O)N(C)C[C@@H]1OCCCC[C@@H](C)Oc2ccc(NC(=O)Nc3ccccc3)cc2C(=O)N([C@@H](C)CO)C[C@H]1C`, the relative growth is inactive: 1.02.

For `C[C@H]1CCCCO[C@H](CN(C)S(C)(=O)=O)[C@@H](C)CN([C@@H](C)CO)C(=O)c2cc(NS(C)(=O)=O)ccc2O1`, the relative growth was inactive: 0.971.

Regarding `COc1cc2c(cc1OC)CN(C(=O)[C@@H]1[C@H]3C(=O)O[C@H](c4ccccc4)[C@H](c4ccccc4)N3[C@H](c3ccc(O)cc3)[C@@]13C(=O)Nc1ccc(C#CCCO)cc13)CC2`, the relative growth is inactive: 1.05.

On to `C[C@@H]1CN([C@H](C)CO)S(=O)(=O)c2ccc(-c3cncnc3)cc2O[C@H]1CN(C)C(=O)Cc1ccccc1`, for which the relative growth is inactive: 0.978.

On to `C[C@H]1CCCCO[C@@H](CN(C)C(=O)NC2CCCCC2)[C@@H](C)CN([C@@H](C)CO)C(=O)c2cc(NC(=O)Cc3ccccc3)ccc2O1`, for which the relative growth is inactive: 0.997.

On to `COCC#Cc1ccc2c(c1)O[C@@H](CN(C)S(=O)(=O)c1cccc(OC)c1)[C@H](C)CN([C@@H](C)CO)S2(=O)=O`, for which the relative growth is inactive: 1.03.

For the compound `CCCN1CCC2(CC1)NC(=O)N(CC(=O)N1CCN(C(=O)OCC)CC1)C2=O`, the relative growth was inactive: 0.992.

`COc1ccc(NC(=O)Nc2ccc3c(c2)C(=O)N([C@H](C)CO)C[C@@H](C)[C@@H](CN(C)Cc2ccc(C(F)(F)F)cc2)OCCCC[C@@H](C)O3)cc1`: the relative growth was inactive: 1.02.

Take `O=C(N[C@H](c1ccc(Cl)cc1)c1ccsc1)C1CCN(Cc2ccc(Oc3ccccc3)cc2)CC1`: the relative growth is inactive: 1.02.

Take `C[C@@H](O)CNC(=O)C(=O)NC(C)(C)C`: the relative growth is inactive: 1.01.

For the compound `CC(=O)N1CCN(CC(N)=S)CC1`, the relative growth was inactive: 1.02.

For the compound `NC/C=C/C(=O)O`, the relative growth was inactive: 1.

On to `C[C@@H]1CCCCO[C@H](CN(C)Cc2ccc(Cl)c(Cl)c2)[C@@H](C)CN([C@H](C)CO)C(=O)c2cc(NC(=O)Nc3ccc(F)cc3)ccc2O1`, for which the relative growth is inactive: 1.03.

On to `C[C@H](CO)N1C[C@H](C)[C@@H](CN(C)CC2CCCCC2)Oc2c(NC(=O)Cn3cnnn3)cccc2C1=O`, for which the relative growth is inactive: 1.

On to `C[C@@H]1CN([C@H](C)CO)C(=O)Cc2cc(NS(=O)(=O)c3cn(C)cn3)ccc2O[C@@H]1CN(C)S(C)(=O)=O`, for which the relative growth is inactive: 1.02.

Consider `C[C@@H]1CN([C@@H](C)CO)C(=O)c2cc(NC(=O)Nc3ccc(F)cc3)ccc2O[C@@H](C)CCCCO[C@@H]1CN(C)Cc1ccc(C(F)(F)F)cc1`, for which the relative growth was inactive: 1.04.

With `CCCCN(CCCC)[NH2+][O-]`, the relative growth is inactive: 0.997.

Regarding `NCC[C@H]1CC[C@H](NC(=O)Nc2ccc(F)cc2)[C@@H](CO)O1`, the relative growth was inactive: 1.

In the case of `CC(C)NC(=O)Nc1ccc2c(c1)C(=O)N([C@@H](C)CO)C[C@@H](C)[C@H](CN(C)Cc1ccc(C(F)(F)F)cc1)OCCCC[C@H](C)O2`, the relative growth is inactive: 1.03.

Turning to `C[C@@H]1CN([C@@H](C)CO)C(=O)CCCn2nncc2CO[C@@H]1CN(C)C(=O)CCCN(C)C`, the relative growth is inactive: 0.989.

Regarding `CN(C)CCCNC(=O)C[C@H]1CC[C@H]2[C@@H](COC[C@@H](O)CN2C(=O)c2cc(Cl)cc(Cl)c2)O1`, the relative growth is inactive: 0.968.

In the case of `O=C(O)CCNC(=O)c1ccccc1`, the relative growth is inactive: 1.03.

In the case of `O=C(CS)NCCCCCCNC(=O)[C@@H]1C[C@@H]2C(=O)NCC(=O)N2[C@@H]1c1ccc(O)cc1`, the relative growth is inactive: 1.

Turning to `C[C@H](CO)N1C[C@H](C)[C@H](CN(C)Cc2ccc(C(=O)O)cc2)Oc2ccc(NC(=O)C3CC3)cc2CC1=O`, the relative growth is inactive: 0.991.

With `C[C@@H]1CN([C@H](C)CO)C(=O)c2cc(NC(=O)CCCCCC(=O)Nc3ccccc3N)ccc2O[C@@H]1CN(C)S(C)(=O)=O`, the relative growth is inactive: 1.01.

`COCC#Cc1ccc2c(c1)O[C@@H](CN(C)S(C)(=O)=O)[C@@H](C)CN([C@H](C)CO)S2(=O)=O`: the relative growth was inactive: 1.

As for `C[C@H](CO)N1C[C@H](C)[C@H](CN(C)C(=O)Nc2cccc3ccccc23)Oc2ccc(NS(=O)(=O)c3cccs3)cc2CC1=O`, the relative growth was inactive: 0.995.

For the compound `CCCC(=O)Nc1ccc(-c2nc3cc(C(C)C)ccc3o2)cc1`, the relative growth is inactive: 1.05.

`COc1ccc2c3c(n(c2c1)C)[C@H](CO)N(C[C@]13CCN(CC1)Cc1ccccc1F)C(=O)Nc1ccc(cc1)F`: the relative growth was inactive: 0.999.

For `CC(C)NC(=O)N(C)C[C@@H]1Oc2ccc(NC(=O)NC3CCCCC3)cc2CC(=O)N([C@@H](C)CO)C[C@@H]1C`, the relative growth was inactive: 0.956.

Take `CN1CCN(C(=O)C[C@H]2C=C[C@@H](NC(=O)Cc3ccccn3)[C@H](CO)O2)CC1`: the relative growth was inactive: 1.01.

In the case of `COc1ccccc1CN1C(=O)c2ccccc2[C@](Cc2ccccc2I)(C(=O)NCCN2CCOCC2)[C@@H]1c1ccc(CO)cc1`, the relative growth was inactive: 0.982.

As to `C[C@@H]1CN([C@H](C)CO)C(=O)c2cc(NC(=O)c3ccccc3)ccc2O[C@@H](C)CCCCO[C@H]1CN(C)S(=O)(=O)c1ccc(Cl)cc1`, the relative growth is inactive: 1.04.

Consider `C[C@@H]1CCCCO[C@H](CN(C)C(=O)Nc2ccccc2)[C@H](C)CN([C@@H](C)CO)C(=O)c2cc(NC(=O)Nc3cccc4ccccc34)ccc2O1`, for which the relative growth was inactive: 1.02.

Consider `COc1ccc(S(=O)(=O)N(C)C[C@H]2Oc3ccc(NS(=O)(=O)c4c(C)noc4C)cc3CC(=O)N([C@H](C)CO)C[C@@H]2C)cc1`, for which the relative growth was inactive: 0.988.

In the case of `C=CCN([C@@H](Cc1ccccc1)[C@@H](O)c1cn(CCCNC(=O)C(=O)NC)nn1)S(=O)(=O)c1ccccc1[N+](=O)[O-]`, the relative growth is inactive: 0.991.

Turning to `Cc1cc(C)n(-c2nc3c(c(=O)n(CCN4CCOCC4)c(=O)n3C)n2C)n1`, the relative growth was inactive: 1.01.

Take `COc1ccccc1NC(=O)Nc1ccc2c(c1)OC[C@@H](C)N(Cc1ccccc1Cl)C[C@@H](C)[C@H](OC)CN(C)C2=O`: the relative growth was inactive: 1.04.

Regarding `CC(C)NC(=O)N(C)C[C@@H]1Oc2c(NS(=O)(=O)c3ccc(Cl)cc3)cccc2C(=O)N([C@H](C)CO)C[C@H]1C`, the relative growth was inactive: 1.02.

As to `Cc1noc(C)c1S(=O)(=O)Nc1ccc2c(c1)CC(=O)N([C@@H](C)CO)C[C@H](C)[C@H](CN(C)S(=O)(=O)c1cccs1)O2`, the relative growth is inactive: 1.01.

Regarding `C[C@@H]1CCCCO[C@H](CN(C)Cc2ccccc2)[C@H](C)CN([C@@H](C)CO)C(=O)c2cc(NS(=O)(=O)c3cccs3)ccc2O1`, the relative growth was inactive: 0.975.

Consider `C[C@H](CO)N1C[C@H](C)[C@@H](CN(C)C(=O)Nc2ccc(C(F)(F)F)cc2)Oc2ccc(NC(=O)Nc3ccc(F)cc3)cc2CC1=O`, for which the relative growth was inactive: 1.03.

Turning to `NC1(C(=O)Nc2ccc3nc(-c4ccc(F)cc4)oc3c2)CC1`, the relative growth was inactive: 1.

On to `CNC(=O)C[C@H]1CC[C@H]2[C@@H](COC[C@H](O)CN2C(=O)c2ccc3c(c2)OCO3)O1`, for which the relative growth is inactive: 0.985.

As for `C[C@H]1CN([C@@H](C)CO)C(=O)c2cc(NS(=O)(=O)c3ccc(Cl)cc3)ccc2O[C@@H]1CN(C)S(C)(=O)=O`, the relative growth is inactive: 1.02.

Consider `Cc1noc(C)c1S(=O)(=O)N(C)C[C@H]1Oc2ccc(NC(=O)C3CC3)cc2CC(=O)N([C@@H](C)CO)C[C@H]1C`, for which the relative growth is inactive: 1.03.

Take `CCC(=O)OCC(=O)C1(OC(=O)CC)C(C)CC2C3CCC4=CC(=O)C=CC4(C)C3(Cl)C(O)CC21C` (stereo not drawn): the relative growth is inactive: 1.

`C[C@@H]1CN([C@@H](C)CO)C(=O)c2cccc(NC(=O)Nc3ccc(F)cc3)c2O[C@@H]1CN(C)Cc1ccc(C(F)(F)F)cc1`: the relative growth is inactive: 0.992.

In the case of `C[C@H]1CN([C@@H](C)CO)C(=O)c2cc(NC(=O)CCN3CCOCC3)ccc2O[C@@H]1CN(C)S(=O)(=O)c1cn(C)cn1`, the relative growth is inactive: 1.01.

Turning to `CN(C)CCn1cnc2ccccc2c1=O`, the relative growth was inactive: 1.03.

`O=C(C[C@H]1CC[C@H](NS(=O)(=O)c2ccccc2F)[C@H](CO)O1)NCCCN1CCOCC1`: the relative growth is inactive: 0.979.

As for `COc1ccc(-c2coc3cc(OC)ccc3c2=O)cc1`, the relative growth is inactive: 1.07.

Take `Cc1ccc(S(=O)(=O)N(C)C[C@@H]2OCCCC[C@H](C)Oc3ccc(NC(=O)Nc4ccc(C(F)(F)F)cc4)cc3C(=O)N([C@@H](C)CO)C[C@H]2C)cc1`: the relative growth was inactive: 1.03.

In the case of `OC[C@@H]1CCCO1`, the relative growth is inactive: 0.986.

Take `C[C@H]1CN([C@@H](C)CO)C(=O)c2cccc(NC(=O)C3CC3)c2O[C@H]1CN(C)C(=O)NC1CCCCC1`: the relative growth was inactive: 1.01.

As for `Cc1cc(C=Cc2ccc3cc(N(C)C)ccc3[n+]2C)c(C)n1-c1ccccc1.O=C([O-])c1cc2ccccc2c(Cc2c(O)c(C(=O)O)cc3ccccc23)c1O`, the relative growth is inactive: 0.996.

Consider `C[C@@H]1CN([C@@H](C)CO)C(=O)c2cc(NS(C)(=O)=O)ccc2O[C@H]1CN(C)Cc1ccc(C(=O)O)cc1`, for which the relative growth was inactive: 1.02.

Consider `C[C@H](CO)N1C[C@H](C)[C@H](CN(C)C(=O)Nc2ccc(F)cc2)OCCCC[C@H](C)Oc2ccc(NC(=O)c3ccncc3)cc2C1=O`, for which the relative growth was inactive: 0.993.

As to `C[C@@H]1CN([C@H](C)CO)C(=O)c2cc(NC(=O)Cc3ccccc3)ccc2O[C@@H]1CN(C)Cc1ccc(C(=O)Nc2ccccc2N)cc1`, the relative growth is inactive: 1.

Take `C[C@@H]1CN([C@H](C)CO)C(=O)c2cc(NS(=O)(=O)c3ccc(Cl)cc3)ccc2O[C@H]1CN(C)Cc1ccc(Oc2ccccc2)cc1`: the relative growth is inactive: 1.01.

For `NCc1ccccc1Cn1cccn1`, the relative growth was inactive: 0.985.
